{"source": "PubChem BioAssay AID1240", "about": "(Sanford-Burnham Center for Chemical Genomics, 2008)", "note": "The whole screen tested about 50,000 compounds, of which about 800 (1.6%) showed an effect of 50% or more. The list shows a part of the results."}
{"molecular_target": "Bcl-2-like protein 10 (Homo sapiens) (UniProt Q9HD36)", "sequence (Q9HD36 whole entry, looked up)": "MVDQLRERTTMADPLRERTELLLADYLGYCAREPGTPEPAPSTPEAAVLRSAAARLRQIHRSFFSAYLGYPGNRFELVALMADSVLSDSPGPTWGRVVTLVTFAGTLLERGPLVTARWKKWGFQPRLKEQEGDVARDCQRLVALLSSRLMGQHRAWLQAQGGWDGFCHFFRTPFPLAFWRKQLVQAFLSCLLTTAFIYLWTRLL", "assay": "TR3 peptide-Bcl-B binding displacers, biochemical primary FP assay, phenotype converters (AID 1240);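 also: 0% = Bcl-B with tracer peptide and DMSO and 100% = tracer peptide lacking Bcl-B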", "conditions": "GST-Bcl-B / FITC-TR3 peptide fluorescence polarization; stronger effect = higher value; compound at 3.75 mg/L", "units": {"displacement": "%"}}
{"smiles": "O=c1/c(=C/c2ccccc2OCc2ccccc2F)sc2nc3ccccc3n12", "displacement": 12.4}
{"smiles": "Cc1ccc(-c2nnc3ccc4ccccc4n23)cc1", "displacement": 20.3}
{"smiles": "Cc1ccc(N2C(=O)CC(N3CCC(C(N)=O)CC3)C2=O)c(Br)c1", "note": "(stereo not given)", "displacement": -3.6}
{"smiles": "Cc1c(Cl)cccc1NC(=O)CSCc1cccc(Br)c1", "displacement": 5}
{"smiles": "Cc1ccc(N2NC(=O)/C(=C/c3ccc(-c4ccc5c(c4)C(=O)NC5=O)o3)C2=O)cc1C", "displacement": 18.2}
{"smiles": "O=C1C(=O)N(c2ccccn2)C(c2cccc(Cl)c2)/C1=C(\\O)c1ccc(Cl)cc1", "note": "(stereo not given)", "displacement": 11.7}
{"smiles": "Cc1c(C(=O)NN)c2cc(O)ccc2n1CCO", "displacement": 24.3}
{"smiles": "COc1ccc2oc(=O)c(NC(=O)c3ccccc3)cc2c1", "displacement": 3.5}
{"smiles": "CCOC(=O)c1ccc(NC(=O)c2ccc(I)cc2)cc1", "displacement": 8.2}
{"smiles": "Cc1ccc(N(CC(=O)O)S(C)(=O)=O)cc1", "displacement": 13.1}
{"smiles": "OC(CN1CCCC1)Cn1c2ccc(Br)cc2c2cc(Br)ccc21", "note": "(stereo not given)", "displacement": 10.2}
{"smiles": "Brc1ccc(OCc2nc(-c3ccccn3)no2)cc1", "displacement": 1.6}
{"smiles": "Cc1sc(NC(=O)c2ccc(F)cc2)c(C(=O)O)c1C", "displacement": 9.6}
{"smiles": "CCOC(=O)c1c[nH]c2c(Cl)c(Cl)ccc2c1=O", "displacement": -10.6}
{"smiles": "Cc1ccccc1NC(=O)/C=C/c1cccc([N+](=O)[O-])c1", "displacement": 2}
{"smiles": "Cn1cnc([N+](=O)[O-])c1Sc1nccc(Nc2ccccc2)c1C#N", "displacement": -2.7}
{"smiles": "C=CCN(CC=C)C(=O)c1cc(OCC)c(OCC)c(OCC)c1", "displacement": -6.7}
{"smiles": "COc1ccc(C(=O)/C=C/Nc2ccccc2NS(=O)(=O)c2ccc([N+](=O)[O-])cc2)cc1OC", "displacement": 19.9}
{"smiles": "CCC(C(=O)NC(c1ccccc1)c1ccccc1)c1ccccc1", "note": "(stereo not given)", "displacement": 2.4}
{"smiles": "Cc1cccc(OCC(=O)Nc2ccc(S(=O)(=O)Nc3ncccn3)cc2)c1", "displacement": 14.4}
{"smiles": "COc1ccc(C(=O)N2CCN(C3CCCC(C)C3)CC2)cc1OC", "note": "(stereo not given)", "displacement": -1.5}
{"smiles": "COc1ccc(N(CC(=O)NCCc2ccc(OC)c(OC)c2)S(=O)(=O)c2ccc(OC)c(OC)c2)cc1", "displacement": 11}
{"smiles": "O=C(COc1ccc2ccccc2c1)Nc1cc(Cl)ccc1Cl", "displacement": -34.9}
{"smiles": "Cc1ccc(-c2ncnn2-c2ccc(F)c([N+](=O)[O-])c2)cc1", "displacement": -1.3}
{"smiles": "CCc1ccc(NC(=O)C(=O)NCCCO)cc1", "displacement": 5}
{"smiles": "Cc1cccc(NS(=O)(=O)c2ccc([N+](=O)[O-])cc2)n1", "displacement": 5.2}
{"smiles": "CN(C)c1ccc(/C=C2\\SC(=O)N(c3ccc(Cl)cc3)C2=O)cc1", "displacement": 15.3}
{"smiles": "O=c1[nH]c(SC2C=CCCC2)nc2sc3c(c12)CCCC3", "note": "(stereo not given)", "displacement": -2.5}
{"smiles": "COc1ccccc1/C=C1\\SC(N2CCC(C)CC2)=NC1=O", "displacement": -11}
{"smiles": "CCCOC(=O)c1c(NC(=O)C2C3CCC(C3)C2C(=O)O)sc2c1CCC(C)C2", "note": "(stereo not given)", "displacement": -18}
{"smiles": "CN1C(=O)NC(=O)/C(=C/c2ccc(-c3ccc(F)cc3)o2)C1=O", "displacement": 123}
{"smiles": "O=C1NC(=S)S/C1=C/c1ccc(-c2ccc(F)cc2)o1", "displacement": -4.4}
{"smiles": "O=C(O)c1cc(N2C(=O)c3ccc(Oc4ccc5c(c4)C(=O)N(c4ccc(O)c(C(=O)O)c4)C5=O)cc3C2=O)ccc1O", "displacement": 3.9}
{"smiles": "Cc1ccc(C(=O)Nc2ccc(I)cc2)o1", "displacement": -14.6}
{"smiles": "O=C(O)CCCCCN1C(=O)C(=O)/C(=C(/O)c2ccc([N+](=O)[O-])cc2)C1c1ccccc1", "note": "(stereo not given)", "displacement": -6}
{"smiles": "CS(=O)(=O)N(CC(=O)Nc1cccc(C(F)(F)F)c1)c1ccc(Br)cc1", "displacement": 1.1}
{"smiles": "COc1cccc(C(=O)Nc2ccc(Cc3ccncc3)cc2)c1", "displacement": 2}
{"smiles": "CC1=CC(C)(C)NC(=S)N1NC(=O)c1ccccc1", "displacement": -16.9}
{"smiles": "COc1ccc(N=Cc2c(O)n(-c3ccccc3F)c(=O)[nH]c2=O)c(OC)c1", "displacement": 1.6}
{"smiles": "COc1ccc(CN=Cc2c(O)n(-c3ccccc3F)c(=O)[nH]c2=O)cc1", "displacement": 15.6}
{"smiles": "CCc1ccc(OCC(=O)Nc2ccc(F)c([N+](=O)[O-])c2)cc1", "displacement": 3}
{"smiles": "COc1ccc(CCN=Cc2c(C(F)(F)F)[nH]n(-c3nc4ccccc4s3)c2=O)cc1OC", "displacement": 69.9}
{"smiles": "C/C(=N\\N1CCN(c2ccccc2)CC1)c1ccncc1", "displacement": 19.2}
{"smiles": "O=C(NC(=O)C(Cl)(Cl)Cl)Nc1ccc(Cl)c(Cl)c1", "displacement": 2.9}
{"smiles": "COC(=O)c1sccc1NC(=O)c1ccc2c(c1)OCO2", "displacement": -13.2}
{"smiles": "O=C(Cc1ccccc1)Nc1ccc(F)cc1", "displacement": 4.3}
{"smiles": "CCOC(=O)/C(C#N)=C/c1ccc(OC)cc1OC", "displacement": 15.7}
{"smiles": "CCSC1=C(C#N)C(c2ccc([N+](=O)[O-])cc2)CC(=O)N1", "note": "(stereo not given)", "displacement": -1.5}
{"smiles": "Cc1nc2cc(-c3ccc(F)cc3)nn2c(C)c1Cl", "displacement": 1.1}
{"smiles": "CC(=O)c1ccc(NC(=O)c2cc3c(ccc4ccccc43)oc2=O)cc1", "displacement": -2.8}
{"smiles": "CC1=NN(c2ccc(S(N)(=O)=O)cc2)C(=O)/C1=C\\c1ccc(-c2ccc(Cl)cc2)o1", "displacement": 12.4}
{"smiles": "CCCOc1ccc(C(=O)Nc2ccc(N3CCCCC3)cc2)cc1", "displacement": -10.6}
{"smiles": "Cc1cc(C)c(C)c(OCCn2ccnc2)c1", "displacement": -10.7}
{"smiles": "Cc1ccc(C(=O)NNC(=O)c2cccc(C)c2O)cc1", "displacement": 13.4}
{"smiles": "O=C(Nc1cc(Cl)ccc1Cl)c1ccc(Cl)c(Cl)c1", "displacement": -0.6}
{"smiles": "O=C1C2C3C=CC(C3)C2C(=O)N1/N=C/c1ccc(-c2ccccc2[N+](=O)[O-])o1", "note": "(stereo not given)", "displacement": 16.6}
{"smiles": "CCOc1ccc(C(=O)N(C(=O)c2ccc(OCC)cc2)c2ncccc2C)cc1", "displacement": -0.9}
{"smiles": "O=C(c1ccc2c(c1)OCCO2)C1CC1", "displacement": 13.6}
{"smiles": "Cc1ccc(OCC(=O)Nc2ccc(N(C)C)cc2)cc1", "displacement": 2.6}
{"smiles": "Cc1cccc(C)c1OCCN1CCCC1", "displacement": 4.2}
{"smiles": "COc1cc(-c2nc3nc(C)c(Br)cc3[nH]2)ccc1O", "displacement": -0.9}
{"smiles": "CCOC(=O)c1c(NC(=O)CC2Nc3ccccc3NC2=O)sc(C)c1C", "note": "(stereo not given)", "displacement": -9.5}
{"smiles": "COc1ccc(N(CC(=O)NCc2ccccc2)S(=O)(=O)c2ccccc2)cc1", "displacement": 16.5}
{"smiles": "CC(=O)Nc1ccc(NC(=O)c2ccc(OCC(C)C)cc2)cc1", "displacement": -1.6}
{"smiles": "CCOC(=O)C1=C(C)N(C)C(=O)NC1c1cccc(O)c1", "note": "(stereo not given)", "displacement": -14.5}
{"smiles": "Cc1ccc(NC(=O)c2ccc3ccccc3n2)cc1", "displacement": -45.5}
{"smiles": "CCC1=NN2C(=N)/C(=C/c3ccc(OCCOc4cccc(OC)c4)cc3)C(=O)N=C2S1", "displacement": -6}
{"smiles": "COc1cc(-c2noc(-c3ccc(Cl)cc3)n2)cc(OC)c1OC", "displacement": 3.5}
{"smiles": "COc1ccccc1CNC(=O)CN(c1ccc(C)cc1)S(=O)(=O)c1ccc(C)cc1", "displacement": 6.5}
{"smiles": "CS(=O)(=O)N(CC(=O)Nc1ccccc1Cl)c1ccc(Br)cc1", "displacement": -6.4}
{"smiles": "O=c1c(Br)c(N2CCCC2)cnn1-c1ccccc1", "displacement": 5.4}
{"smiles": "Cc1ccc(CCSc2ccc(F)cc2)cn1", "displacement": 4.1}
{"smiles": "O=C1CCCC2=C1C(c1ccc(Cl)cc1)Nc1ccc(C(=O)c3ccccc3)cc1N2", "note": "(stereo not given)", "displacement": 8.1}
{"smiles": "O=C(Nc1cccc(C(F)(F)F)c1)c1ccc(CN2CCc3ccccc3C2)cc1", "displacement": 6.9}
{"smiles": "CC1(C)CC(=NOC(=O)N2c3ccccc3C=Cc3ccccc32)CC(C)(C)N1", "displacement": -0.3}
{"smiles": "O=C(COc1ccc(/C=N/NS(=O)(=O)c2ccccc2)cc1)NCCc1ccccc1", "displacement": -8}
{"smiles": "CC(=O)Oc1ccc(/C=C2\\C=C(c3ccc(Br)cc3)OC2=O)c(OC(C)=O)c1", "displacement": 3.4}
{"smiles": "CCCCc1ccc(/C=C2/C(=O)ON=C2c2ccccc2)s1", "displacement": 40.8}
{"smiles": "O=C(O)c1ccc2c(c1)C(=O)N(c1ccc(-c3nc4cc(N5C(=O)c6ccc(C(=O)O)cc6C5=O)ccc4[nH]3)cc1)C2=O", "displacement": 17}
{"smiles": "O=C1NC(=S)NC(=O)C1=Cc1ccccc1OCCOc1ccc([N+](=O)[O-])cc1", "displacement": 8}
{"smiles": "COC(=O)C1=C(C)N(c2cccc(C(F)(F)F)c2)C(=O)C1", "displacement": -6.4}
{"smiles": "COc1ccc(C2CC(=O)C3=C(C2)Nc2ccccc2NC3c2cccs2)cc1", "note": "(stereo not given)", "displacement": -6.8}
{"smiles": "CC(C)c1nc2c(c3c1[nH]c1ccccc13)C(=O)CC(C)(C)C2", "displacement": 11.8}
{"smiles": "O=[N+]([O-])c1ccc(N2CCN(c3nc4ccc([N+](=O)[O-])cc4s3)CC2)cc1", "displacement": -19}
{"smiles": "CC1(C)CC(=O)C=C(Nc2ccccc2C#N)C1", "displacement": 14.4}
{"smiles": "O=C(c1ccccc1O)N1N=CCC1(O)c1ccc(Cl)cc1", "note": "(stereo not given)", "displacement": -7.7}
{"smiles": "O=C(Nc1cc(C(F)(F)F)ccc1Cl)C(O)(c1ccccc1)c1ccccc1", "displacement": 5.1}
{"smiles": "Cc1ccc(C(=O)Nc2nc(C34CC5CC(CC(C5)C3)C4)c(C)s2)cc1", "displacement": 11.4}
{"smiles": "Cc1ccc([N+](=O)[O-])cc1Cc1ccccc1", "displacement": 10.2}
{"smiles": "O=C(N/N=C/c1ccc([N+](=O)[O-])o1)C1COc2ccccc2O1", "note": "(stereo not given)", "displacement": 0.6}
{"smiles": "Nc1nc2c(s1)-c1ccccc1CC2", "displacement": 15.4}
{"smiles": "O=C1/C(=C\\c2cc([N+](=O)[O-])ccc2O)SC(=S)N1c1cccc(C(F)(F)F)c1", "displacement": -16.7}
{"smiles": "O=C(O)c1cccnc1SCc1ccc([N+](=O)[O-])cc1", "displacement": 1.8}
{"smiles": "C=C(C)c1cccc(C(C)(C)NC(=O)N(Cc2ccccc2)Cc2ccco2)c1", "displacement": 5.6}
{"smiles": "COc1cc(OC)c(C2Nc3ccccc3NC3=C2C(=O)CC(C)(C)C3)cc1OC", "note": "(stereo not given)", "displacement": -0.6}
{"smiles": "O=C(Nc1cccc(Br)c1)C1CC1", "displacement": -1.2}
{"smiles": "Cc1cccc2c(N=NC(=O)COc3cccc(Br)c3)c(O)n(C)c12", "displacement": 4.9}
{"smiles": "CC(C)CN1C(=O)/C(=C/c2cccc3ccccc23)SC1=S", "displacement": 8.3}
{"smiles": "O=C(c1ccccc1C(F)(F)F)N1CCOCC1", "displacement": 12.1}
{"smiles": "CC(C)C(=O)NS(=O)(=O)c1ccc(NS(C)(=O)=O)cc1", "displacement": 17.8}
{"smiles": "Cc1nn(-c2ccccc2)c(C)c1/C=N/NC(=O)CSc1nc2ccccc2[nH]1", "displacement": -6}
{"smiles": "Cc1cc(-c2ccccc2)nc2cc(C(=O)N3CCCC3)nn12", "displacement": 9.1}
{"smiles": "COC(=O)c1c(N)sc2c1CCC(c1ccccc1)C2", "note": "(stereo not given)", "displacement": 0}
{"smiles": "O=C(N/N=C/c1ccc(OC(=O)c2ccccc2Br)cc1)c1ccccn1", "displacement": 8.6}
{"smiles": "CCOc1ccccc1C(=O)Nc1cc(C)ccc1C", "displacement": -1.5}
{"smiles": "CC(=O)Oc1cccc2c1C(=O)c1ccccc1C2=O", "displacement": 6.5}
{"smiles": "COc1ccc(CCNC(=O)C(=O)Nc2ccc3c(c2)OCCO3)cc1OC", "displacement": 3.4}
{"smiles": "C=CCc1c(C)nc2c(C)c(-c3ccc(C)cc3)[nH]n2c1=O", "displacement": 11.5}
{"smiles": "Cc1c(-c2ccc(Cl)s2)nc2ccccc2c1C(=O)O", "displacement": 14.5}
{"smiles": "COc1ccccc1CNC(=O)c1ccc(OC)c(OC)c1", "displacement": -0.2}
